For 93 molecules, inhibition results are on record in PubChem BioAssay AID485344 (National Center for Advancing Translational Sciences (NCATS), 2010).

Among all 340,000 compounds or so, about 6,900 (2%) were called active. Cut-off read from the data, not from the text of the source: active = inhibition above about 30%; inactive = below that, where a call was filed. This is a selection; strong and weak results do not stand in their true shares. Entries without a call were filed so in the source.

Chain of UniProt P14416 (P14416 whole entry, looked up): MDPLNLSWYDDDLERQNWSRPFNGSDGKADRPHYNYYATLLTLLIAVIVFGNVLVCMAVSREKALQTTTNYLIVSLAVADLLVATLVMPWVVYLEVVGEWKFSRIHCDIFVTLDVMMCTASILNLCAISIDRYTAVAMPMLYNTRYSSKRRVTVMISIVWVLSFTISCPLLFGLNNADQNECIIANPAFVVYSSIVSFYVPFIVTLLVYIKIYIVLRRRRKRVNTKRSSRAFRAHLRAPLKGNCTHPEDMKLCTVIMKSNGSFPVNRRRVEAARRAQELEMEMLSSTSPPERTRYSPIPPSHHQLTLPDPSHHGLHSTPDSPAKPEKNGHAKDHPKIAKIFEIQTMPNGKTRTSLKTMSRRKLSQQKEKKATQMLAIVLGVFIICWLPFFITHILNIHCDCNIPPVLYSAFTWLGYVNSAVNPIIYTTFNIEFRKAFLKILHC

The test has as its target D(2) dopamine receptor (Homo sapiens) (UniProt P14416). The test is described as follows: HTS Assay for Allosteric Antagonists of the Human D2 Dopamine Receptor: Primary Screen for Antagonists. Note: 0% is about no effect. As to conditions: HEK293 TREx D2 cells, calcium flux, dopamine EC80; at 10 µM; stronger effect = higher value. The procedure, abridged:
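In this primary screen, negative modulation is detected by tracking calcium flux after an EC80 dopamine challenge in inducible HEK293 T-REx D2 cells preexposed to test compound for 180 s.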
(In general: Calcium assays in cells follow changes in intracellular calcium, usually with a dye or a luminescent sensor.)
Turning to `Cc1cccc(N2CCN(C(=O)c3oc(=O)c4ccccc4c3-c3ccccc3)CC2C)c1` (stereo not drawn), the inhibition was -4.49%.

Take `NC(=O)c1cc(S(=O)(=O)NCC2CCC(C(=O)Nc3ccc(Cl)cc3)CC2)cs1` (stereo not drawn): the inhibition was -13.7%. The value for `Cc1nnc(N2CCN(C(=O)Nc3cccc(C(F)(F)F)c3)CC2)c2nn(-c3ccccc3)c(C)c12` was 11.9%; that for `O=C(Nc1cccc(Cl)c1)c1csnn1` was -22.6%; that for `Cc1cc(C)nc(Sc2c(C)n[nH]c2C)n1` was active: 31.6%.

Consider `Cc1ccc(-c2nc(SCC(=O)NCC3CCCO3)c(-c3ccc(C)cc3)[nH]2)cc1` (stereo not drawn), for which the inhibition came to 17%. Under `Cc1ccc(OCC(=O)Nc2ccc3nn(-c4ccc(Cl)cc4)nc3c2)cc1` stands 2.83%; under `O=c1c2oc3ccccc3c2n(Cc2ccccc2)c(=O)n1Cc1ccc2c(c1)OCO2`, -10.3%; under `CCOC(=O)c1cccc(Nc2ccc3cc(S(=O)(=O)N4CCCCC4)ccc3n2)c1`, -1.4%. On to `COc1cc(C2CC(=O)Nc3c2c(=O)[nH]c2ncnn32)ccc1O` (stereo not drawn), for which the inhibition was found to be 7.67%. Consider `Cc1ccc(C)c(NC(=O)Cn2c(=O)n(CCC(=O)NCc3ccc4c(c3)OCO4)c(=O)c3ccccc32)c1`, for which the inhibition was 20.1%. The value for `CCCN1CCCc2cc(CN(CCCN3CCOCC3)C(=O)Nc3ccc(CC)cc3)ccc21` was -2.26%; that for `CCCC(=O)N1c2nc(C(C)C)nn2C2(CCCCC2)[C@@H]2CCCC[C@@H]21` was 4.91%; that for `COc1cccc(NS(=O)(=O)c2ccc3[nH]cc(C(=O)N(C)C4CCCCC4)c(=O)c3c2)c1` was -6.48%.

As for `CCCCn1c(=O)c2oc3ccccc3c2n(CC(=O)Nc2cccc(Cl)c2)c1=O`, the inhibition came to 3.59%. Under `CCCCc1nn2c(=O)cc(COC(=O)c3ccccc3NC(=O)c3ccccc3OC)nc2s1` stands -5.08%; under `COc1cc2c(cc1OC)n(CC(=O)c1ccc(F)cc1)c(=O)n1nc(CCn3nc(C)cc3C)nc21`, 2.03%.

As for `COc1cccc(CNC(=O)c2ccc(NC(=O)N3CCCCc4ccccc43)cc2)c1`, the inhibition was found to be 6.18%. The value for `COc1ccc(C)cc1NC(=O)c1ccc2c(Cl)c3c(nc2c1)CCC3` was 0.717%; that for `CCOC(=O)N1CCN(C(=O)c2ccc(Cn3c(=S)[nH]c4cc5c(cc4c3=O)OCO5)cc2)CC1` was active: 31.2%; that for `Cn1nc(C(=O)N2CCN(c3ccccc3)CC2)c2c1-c1ccccc1S(=O)(=O)C2` was 4.47%. The value for `COc1ccc(S(=O)(=O)c2c(SC)nn(Cc3ccccc3C)c2NC(C)=O)cc1` was 8.17%; that for `O=C(CSc1nc2c([nH]c3ccccc32)c(=O)n1-c1ccccc1)N1CCCC1` was 4.93%; that for `CC(Oc1ccc(Br)cc1)C(=O)NC1CCN(Cc2ccccc2)CC1` (stereo not drawn) was active: 64.4%. With `CCCCCOc1ccc(C2c3c(oc4ccccc4c3=O)C(=O)N2c2nc(C)c(C)s2)cc1OCC` (stereo not drawn), the inhibition was -7.9%.

In the case of `COc1ccc2c(c1)-c1nc(NC(=O)c3ccc(Cl)cc3)sc1CC2`, the inhibition turned out to be 4.65%. In the case of `COc1ccc(CNc2ncnc3c2nnn3C)cc1`, the inhibition is -7.85%.

With `CCN1CCN(S(=O)(=O)c2ccc(Cl)c(C(=O)NC(C)(C)C)c2)CC1`, the inhibition was active: 30.4%. As to `Cc1cccc(NC(=O)Cn2cc(C(=O)c3ccco3)c3ccccc32)c1C`, the inhibition was -6.4%.

For the molecule `CCc1ccccc1NC(=O)Cn1nnc(C(=O)Nc2ccc(C)c(F)c2)c1N`, the inhibition was determined as 8.03%. Under `Cc1nn(CC(=O)NCc2ccc(OC(C)C)cc2)c(=O)c2c(C)n(-c3ccc(Cl)cc3)nc12` stands 10.8%. For the molecule `COc1ccc(NC(=S)N(CCCN2CCCC(C)C2)Cc2cccs2)cc1` (stereo not drawn), the inhibition was active: 49.3%. Under `Cc1ccc2oc(-c3ccc(Cl)c(NC(=O)c4ccc(-c5ccccc5[N+](=O)[O-])o4)c3)nc2c1` stands 0.221%. Under `COC(=O)c1ccccc1NC(=O)Cc1noc2ccc(C)cc12` stands 26.6%; under `CCc1ccc(NC(=O)CC2C(=O)N(c3ccccc3)C(=O)N2C(C)C)cc1` (stereo not drawn), 9.82%. In the case of `COc1ccc(Br)cc1CNC(=O)CN1CCSc2ccccc21`, the inhibition turned out to be 14.7%.

Regarding `O=C(Nc1ccc(Cl)c(Cl)c1)N1CCC(c2ccccc2)C1` (stereo not drawn), the inhibition is -14%.

For the molecule `COc1ccc(NC(=O)Cn2c(=O)n(Cc3nc(-c4ccccc4)no3)c(=O)c3cc4c(cc32)OCO4)cc1Cl`, the inhibition was -0.25%. For `Cc1ccc(-n2c(=O)c3ccc(C(=O)NCc4ccco4)cc3n(Cc3cccc(Cl)c3)c2=O)cc1`, the inhibition came out at 8.29%. Regarding `CC(C)c1cnc2c(c1SCc1cccc(C(F)(F)F)c1)c(=O)n(C)c(=O)n2C`, the inhibition is 1.36%.

Regarding `O=C(Nc1ccc(F)cc1F)c1noc2c1CCc1ccccc1-2`, the inhibition is -1.89%.

`Cc1cccc(-n2c3nc(=O)n(C)c(=O)c-3cc3c(Cl)cccc32)c1C`: the inhibition amounted to 14.2%. Under `CC(C)CCNC(=O)CSCc1cnn(-c2ccccc2)c1-n1cccc1` stands 24.1%; under `CCc1nc(SCC(=O)Nc2ccc(NC(C)=O)cc2)n[nH]1`, -4.98%; under `CC(=O)c1ccc(NC(=O)CCn2nc(C)c(S(=O)(=O)N3CCC(C)CC3)c2C)cc1`, 9.42%. The value for `COc1ccccc1N1CCN(CC(=O)Nc2cccc(F)c2)CC1` was active: 31.3%. The value for `O=C(CCN1CCN(c2ccccc2)CC1)Nc1ccc(OCc2ccccc2)cc1` was active: 65%; that for `Cn1cc(S(=O)(=O)c2ccccc2)c(=O)c2cc(F)c(N3CCCCC3)cc21` was -5.21%; that for `Cc1noc2nc(C(=O)O)nc(N3CCCCC3)c12` was 7.93%. Take `COc1ccc(OC)c(-c2noc(CSc3nnc(Cc4ccccc4)n3-c3cccc(C)c3)n2)c1`: the inhibition is -2.22%.

Take `COc1cccc(N2CC(NC(=O)COc3ccc4ccccc4c3)CC2=O)c1` (stereo not drawn): the inhibition is -15.6%. Regarding `CCc1nnc(SCC(=O)Nc2cc(Cl)c(OC)cc2OC)c2cc3oc(C)cc3n12`, the inhibition was -3.68%.

Regarding `COc1ccc(-c2noc(CN3CCN(c4ccccc4OC)CC3)n2)cc1OC`, the inhibition was -5.25%.

Consider `O=C(Cn1c(=S)[nH]c2ccccc2c1=O)N1CCN(c2ccccc2)CC1`, for which the inhibition was active: 30.9%. As for `CC(=O)Nc1ccc(S(=O)(=O)NC2(C(F)(F)F)NC(=O)N(c3ccc(Cl)cc3)C2=O)cc1` (stereo not drawn), the inhibition is -7.24%.

Regarding `COC(=O)c1c(C)sc(-c2c(-c3cccc(OC)c3)[nH]c3c2c(=O)[nH]c(=O)n3C)c1O`, the inhibition was 2.32%. Consider `COc1ccc(C(=O)N2CCc3cc(OC)c(OC)cc3C2COc2ccccc2OC)cc1` (stereo not drawn), for which the inhibition amounted to 4.43%.

Consider `COc1ccc(C)c2sc(N(Cc3cccnc3)C(=O)CCc3ccccc3)nc12`, for which the inhibition amounted to 9.69%. Take `CCCn1c(=O)c2sccc2n2c(CCCC(=O)Nc3ccc(C)c(F)c3)nnc12`: the inhibition is -13.4%.

As to `Cc1ccc(-c2ccc(=O)n(CC(=O)Nc3ccc(F)c(Cl)c3)n2)cc1C`, the inhibition turned out to be 13.6%.

Regarding `CCOc1ccc(CCNc2nc3c(-c4ccc(C)cc4)nnn3c3ccccc23)cc1OCC`, the inhibition was -1.96%. For `COc1cccc(NC(=O)CSC2=Nc3ccccc3C3=NC(CCC(=O)NCc4ccco4)C(=O)N23)c1` (stereo not drawn), the inhibition is -4.38%. For the molecule `CCOc1ccccc1C(=O)Nc1ccc(S(=O)(=O)N2CCCCC2c2cccnc2)cc1` (stereo not drawn), the inhibition is 25.7%. The value for `COc1ccccc1C(=O)Nc1nnc(S(=O)(=O)N2CCCCCC2)s1` was 7.76%; that for `COc1ccc(-c2nc(CNS(=O)(=O)c3ccc(C)cc3)cs2)cc1` was -3.33%; that for `Cc1ccc(-c2cc(C(=O)N(Cc3ccccc3)Cc3ccco3)no2)cc1F` was 0.824%. The value for `Cc1cccc(NC(=O)CN(C)S(=O)(=O)c2ccc3c(c2)c(=O)n(C)c(=O)n3C)c1` was -2.59%. Under `CC1CCCCN1CC(=O)N1CCCc2c1c(=O)oc1ccc(OCc3ccccc3)cc21` (stereo not drawn) stands 0.584%; under `O=C(NCCS(=O)(=O)N1CCN(c2ccccc2)CC1)C1CC(=O)N(c2ccccc2)C1` (stereo not drawn), -2.36%. As for `COc1ccccc1C(=O)Nc1ccc(-c2nc3ccccc3s2)c(C)c1`, the inhibition is -4.92%. For `CC(C(=O)N1CCN(Cc2ccccc2)CC1)n1ncn2cccc2c1=O` (stereo not drawn), the inhibition is active: 48.5%. As for `O=C(NCc1ccccc1Cl)c1ccc(NC(=O)N2CCCCc3ccccc32)cc1`, the inhibition was -21%. Under `CCOc1ccc(NC(=O)CSC2=Nc3ccccc3C3=NC(CC(=O)NCc4ccc5c(c4)OCO5)C(=O)N23)cc1` (stereo not drawn) stands 3.85%; under `Cc1ccc(S(=O)(=O)c2c(Nc3cccc(Cl)c3)sc(C(=O)c3ccc4c(c3)OCO4)c2N)cc1`, 15%; under `O=C(OCc1cc(=O)n2c3c(sc2n1)CCCC3)c1cccc(NC(=O)c2ccccc2F)c1`, -15.4%.

`COc1cc(C)ccc1OCCSc1nnc(-c2ccc(C)cc2)o1`: the inhibition is -15.6%. Under `Cc1ccc(C(=O)c2oc3ccccc3c2NC(=O)Cc2coc3c(C)c(C)ccc23)cc1` stands -21.7%; under `COC(=O)c1[nH]c2cccc(C)c2c1NC(=O)CN1CCN(c2ccccc2OC)CC1`, active: 54.4%. The value for `Cc1ccc(-c2nnc(Nc3ccc(O)cc3)c3ccccc23)cc1S(=O)(=O)NCc1nc2ccccc2[nH]1` was 9.26%; that for `COc1cc(NC(=O)CSc2nc(C)c(C(=O)Nc3ccccc3)c(-c3ccc(OC)c(OC)c3)c2C#N)c(OC)cc1Cl` was 1.48%. Under `CC(C)CN(CCCNC(=O)CN1C(=O)COc2ccc(S(=O)(=O)N3CCCCCC3)cc21)CC(C)C` stands 7.16%. Consider `O=C1CC(=O)Nc2cc(S(=O)(=O)N3CCOc4ccccc43)ccc2N1`, for which the inhibition is -3.99%. The value for `Cc1ccc(Cl)cc1N1CCN(CCCNc2ncnc3onc(-c4ccc(F)cc4)c23)CC1` was 8.56%; that for `COc1ccc(N2CC3=C(C2=O)C(c2ccc(Br)cc2)NC(=O)N3C)cc1` (stereo not drawn) was -18.7%. The value for `COc1ccc(N(C(=O)COc2c(C)cccc2C)S(=O)(=O)c2ccc(Cl)cc2)cc1` was -3.27%. The value for `Cc1cccc(N2CCN(S(=O)(=O)c3ccc4oc(=O)c5ncn(C)c5c4c3)CC2C)c1` (stereo not drawn) was 2.03%; that for `COC(=O)c1ccccc1NC(=O)c1cc2nc(-c3ccccc3)cc(-c3ccccc3)n2n1` was 2.28%; that for `Fc1ccccc1N1CCN(CCCc2ccccc2)CC1` was active: 74%. In the case of `Cc1ccccc1C(=O)NCC(c1cccnc1)N1CCc2ccccc21` (stereo not drawn), the inhibition is -18.3%. Under `CCOC(=O)c1c(C)sc(-c2c(-c3ccc4c(c3)OCCO4)[nH]c3c2c(=O)[nH]c(=O)n3C)c1O` stands -4.81%; under `COc1ccc(NC(=O)C2(c3cccs3)CCOCC2)cc1Cl`, -15.5%; under `COC(=O)c1ccc(CN2CCC(CO)(Cc3cccc(OC)c3)CC2)cc1`, active: 37%.

Consider `N=c1c(C(=O)NCc2ccco2)cc2c(=O)n3ccccc3nc2n1Cc1ccccc1`, for which the inhibition was active: 37.8%.

As a reminder, the inhibition is the change of the read-out against control, counted positive when it falls.
